Results taken from publication PMC3938053.
These are yes or no findings as the source states them, for the method shown.

Target: SMAD1, endogenous in HaCaT cells (human (endogenous in HaCaT)), Q15797
Test: SEC; extracts of unstimulated HaCaT cells only, Superose 6 10/300 GL, 50 mM Tris-HCl 7.5, 150 mM NaCl, 0.03% Brij-35; fractions immunoblotted
Settings: remark: other sources report otherwise

binding: no binding
B1: SMAD1, endogenous in HaCaT cells, Q15797 1-465 (protein)
chain: MNVTSLFSFTSPAVKRLLGWKQGDEEEKWAEKAVDALVKKLKKKKGAMEELEKALSCPGQPSNCVTIPRSLDGRLQVSHRKGLPHVIYCRVWRWPDLQSHHELKPLECCEFPFGSKQKEVCINPYHYKRVESPVLPPVLVPRHSEYNPQHSLLAQFRNLGQNEPHMPLNATFPDSFQQPNSHPFPHSPNSSYPNSPGSSSSTYPHSPTSSDPGSPFQMPADTPPPAYLPPEDPMTQDGSQPMDTNMMAPPLPSEINRGDVQAVAYEEPKHWCSIVYYELNNRVGEAFHASSTSVLVDGFTDPSNNKNRFCLGLLSNVNRNSTIENTRRHIGKGVHLYYVGGEVYAECLSDSSIFVQSRNCNYHHGFHPTTVCKIPSGCSLKIFNNQEFAQLLAQSVNHGFETVYELTKMCTIRMSFVKGWGAEYHRQDVTSTPCWIEIHLHGPLQWLDKVLTQMGSPHNPISSVS
